According to the supplement of paper PMC8047034:
Counter-ions that a name gives are not always drawn. The list shows a part of the results. Many values rest on one well or one pass, so single values are uncertain.

Assays:
OVCAR4 = experiment: log2 surviving fraction (library drug vs vehicle, or drug + carboplatin vs carboplatin alone; relative to plate median); ovarian cancer lines: OVCAR4 is platinum-sensitive and Ov4Carbo platinum-resistant; higher = more cell survival; conditions: library drug concentration 10 µM, 7 days
Ov4Carbo = experiment: as above; conditions: library drug concentration 10 µM, 7 days

Structure (SMILES)	log2 surviving fraction (OVCAR4; carboplatin co-treatment 0 µM)	log2 surviving fraction (OVCAR4; carboplatin co-treatment 5 µM)	log2 surviving fraction (Ov4Carbo; carboplatin co-treatment 0 µM)	log2 surviving fraction (Ov4Carbo; carboplatin co-treatment 5 µM)
N[C@H](Cc1ccccc1)C(=O)O [D-Phenylalanine]	0.0214	0.613	0.387	0.613
CC(C)NCC(O)c1ccc(O)c(O)c1 (stereo not given) [Isoprenaline hydrochloride]	0.00949	0.259	1.24	0.407
CCCCC(CC)CNC(=N)NC(=N)NCCCCCCNC(=N)NC(=N)NCC(CC)CCCC (stereo not given) [Alexidine HCl]	-9.23	-7.64	-8.36	-8.19
c1cnc2cc3c(cc2n1)[C@@H]1CNC[C@H]3C1 [Varenicline tartrate]	-9.11	-0.877	-7.91	0.472
O=C(O[C@H]1C[C@H]2CC[C@@H](C1)[N+]21CCCC1)C(O)(c1ccccc1)c1ccccc1 [Trospium chloride (Sanctura)]	0.136	0.387	-0.9	0.155
CNC[C@H](O)c1cccc(O)c1 [Phenylephrine HCl]	0.0495	0.367	1.51	0.816
Cc1cn([C@H]2C=C[C@@H](CO)O2)c(=O)[nH]c1=O [Stavudine]	0.78	0.169	0.396	0.71
CN(C)CCCN1c2ccccc2CCc2ccc(Cl)cc21 [Clomipramine hydrochloride (Anafranil)]	-2.07	-1.84	-2.66	-2.11
CCCNC(=O)NS(=O)(=O)c1ccc(Cl)cc1 [Chlorpropamide]	-0.31	-0.397	0.615	0.147
C#C[C@]1(O)CC[C@H]2[C@@H]3CCc4cc(O)ccc4[C@H]3CC[C@@]21C [Ethinyl Estradiol]	-1.53	-2.52	-0.934	-2.04
